Where a chain is given by its changes, count along the chain named.
How the values were obtained:
[1] = target: T1, human PDGF-Rβ (human, UniProt P09619 33-530, limits assumed); test: column 'Affinity (human)'; value is an estimate based on the avidity effect, not a fitted SPR value
T1 construct: Immobilised on an SPR surface ('PDGF-Rβ-functionalized surfaces'); also called hPDGF-Rβ; human PDGF-R beta

[2] = target: T2, murine PDGF-Rβ (mouse, UniProt P05622 32-530, limits assumed); test: column 'Affinity (mouse)', cells shifted one column; value is an estimate based on the avidity effect
T2 construct: Immobilised on an SPR surface; also called mouse PDGF-R beta; mPDGF-Rβ
T2 sequence (looked up): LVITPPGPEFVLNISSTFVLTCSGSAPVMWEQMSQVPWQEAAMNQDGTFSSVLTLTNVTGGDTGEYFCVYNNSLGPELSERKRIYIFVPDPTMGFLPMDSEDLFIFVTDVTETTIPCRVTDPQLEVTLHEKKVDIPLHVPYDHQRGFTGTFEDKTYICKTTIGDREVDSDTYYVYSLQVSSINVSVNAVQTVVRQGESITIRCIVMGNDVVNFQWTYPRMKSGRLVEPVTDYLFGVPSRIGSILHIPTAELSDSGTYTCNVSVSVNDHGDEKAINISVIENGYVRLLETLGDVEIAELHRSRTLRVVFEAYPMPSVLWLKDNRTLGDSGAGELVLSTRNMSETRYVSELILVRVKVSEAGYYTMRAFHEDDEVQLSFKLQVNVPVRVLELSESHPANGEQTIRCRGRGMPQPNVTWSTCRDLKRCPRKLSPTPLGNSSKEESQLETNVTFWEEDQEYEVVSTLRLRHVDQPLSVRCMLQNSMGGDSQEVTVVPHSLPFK

[3] = target: T1, human PDGF-Rβ; test: SPR (BIAcore); column 'Affinity (human)'
[4] = target: T2, murine PDGF-Rβ; test: SPR (BIAcore); column 'Affinity (mouse)'
[5] = target: T2, murine PDGF-Rβ; test: SPR (BIAcore); column 'Affinity (mouse)', cells shifted one column
[6] = target: T1, human PDGF-Rβ; test: BIAcore, by Affibody AB
[7] = target: T2, murine PDGF-Rβ; test: BIAcore, by Affibody AB; murine target; murine target
[8] = target: T3, human PDGF-Rα (human, UniProt P16234 24-524, limits assumed); test: SPR, human PDGF-Rα surface per legend paragraph 14, Z2465 injected; concentrations not given
T3 construct: also called hPDGF-Rα

B1: (Z2465)2 (SEQ. ID NO. 19) (designed binder)
chain: GSSHHHHHHLQVDNKFNKELIEAAAEIDALPNLNRRQWNAFIKSLVDDPSQSANLLAEAKKLNDAQAPKVDNKFNKELIEAAAEIDALPNLNRRQWNAFIKSLVDDPSQSANLLAEAKKLNDAQAPKVDC
modifications: C-terminal cysteine thiol blocked with N-ethyl maleimide (NEM)
notes: Head-to-tail dimer of Z2465 on a single His6-tagged chain; also called Z2465 dimer; bivalent Z2465
For B1, the Kd [1] was < 0.5 nM and the Kd [2] was < 7 nM.

B2: Ztaq (SEQ. ID NO. 10) control (designed binder)
chain: GSSHHHHHHYYLEVDNKFNKELGWATWEIFNLPNLNGVQVKAFIDSLRDDPSQSANLLAEAKKLNDAQAPKVDC
modifications: C-terminal cysteine thiol blocked with N-ethyl maleimide (NEM)
notes: His6-tagged Z-domain (Affibody) polypeptide used as negative control; also called control polypeptide; non-targeted Ztaq polypeptide
B2: no binding [3]; no binding [4].

B3: Z2483 (SEQ. ID NO. 18) (designed binder)
chain: GSSHHHHHHLQVDNKFNKELVKAAAEIDALPNLNRRQWNAFIKSLVDDPSQSANLLAEAKKLNDAQAPKVDC
modifications: C-terminal cysteine thiol blocked with N-ethyl maleimide (NEM)
notes: His6-tagged Z-domain (Affibody) polypeptide
B3 was tested, and the Kd [3] was 0.4 nM and the Kd [5] was 6 nM.

B4: Z2516 (SEQ. ID NO. 17) (designed binder)
chain: B3 chain with K22R, A25E, A29N, R36K
modifications: C-terminal cysteine thiol blocked with N-ethyl maleimide (NEM)
notes: as for B3
In the case of B4, the Kd [3] is reported as < 1 nM.

B5: Z2465 (SEQ. ID NO. 16) (designed binder)
chain: B3 chain with V21I, K22E
modifications: C-terminal cysteine thiol blocked with N-ethyl maleimide (NEM)
notes: His6-tagged Z-domain (Affibody) polypeptide, monomer; also called His6-Z2465
For B5, the Kd [3] was 0.5 nM, the Kd [5] was 7 nM and the Kd [6] was 0.6 nM. For the same binder, the Kd [7] was ~4 nM and the binding result [8] was “no binding”.

B6: Z2477 (SEQ. ID NO. 25) (designed binder)
chain: B3 chain with V21I, K22A, A29R, R36V
modifications: C-terminal cysteine thiol blocked with N-ethyl maleimide (NEM)
notes: as for B3
With B6 the Kd [3] was < 1 nM.

B7: Z1982 (SEQ. ID NO. 14) (designed binder)
chain: B3 chain with K22R, A25Q, A29E, R36G
modifications: C-terminal cysteine thiol blocked with N-ethyl maleimide (NEM)
notes: as for B3
Binder B7 has a Kd [3] of 4 nM and a Kd [5] of 27 nM.

Source: patent US20090191124A1 (GENERAL ELECTRIC, published 2009)
